# Hit rate of the full screen: of about 45,000 compounds, about 200 (0.44%) were called active. Roughly 7% stayed inconclusive and do not appear here. Calls come from the whole dose curve; as a rule, active = well fitted activation curve with a large enough effect; inconclusive = small, poorly fitted or top-dose-only effect; inactive = no such curve, though single readings can be large or run the other way. This is one part of the list.
# Test: qHTS of TDP-43 Inhibitors: NCGC Sytravon Library Screen; note: 0% is about no effect; nearly all actives have a fitted effect of over 55% in size
# Details: yeast TDP-43 toxicity rescue, BacTiter-Glo growth, 24 h; series mostly up to 46.1 µM; growth rescue (activation): at the top concentration
# Summary of the method: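 TDP-43-expressing yeast, pregrown in raffinose, seeded at OD600 0.02 in galactose medium with compound for 24 hr at 30 deg C. Growth read by BacTiter-Glo luminescence, so rescue of toxicity appears as activation.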
row,Structure (SMILES),growth rescue (activation)
1,CC(/C=N/NC(=O)c1ccc2nc(C)[nH]c2c1)=C\c1ccccc1,inactive: 9.65%
2,Cc1[nH]c2ccccc2c1/C=N/NC(=O)c1cccs1,inactive: 18.8%
3,COc1ccc(N2CCN(C(=O)CNC(=O)Cc3ccc(Cl)cc3)CC2)cc1,inactive: 9.37%
4,O=Cc1ccc(-c2nc3ccccc3s2)o1,inactive: -0.318%
5,CC1=Nc2ccccc2N=C(NC(=O)/C=C/C(=O)O)C1c1ccccc1 (stereo not drawn),inactive: 0.409%
6,O=C(O)c1ccc(-n2ccnc2)c([N+](=O)[O-])c1,inactive: 13.9%
7,O=C(Nc1ccc(N2CCCCCC2)cc1)c1ccccc1Cl,inactive: -4.55%
8,Cc1ccc(-n2c(N)c(Br)c(=O)[nH]c2=O)cc1C,inactive: 16.4%
9,Cc1ccc(N(CC(N)=O)C2SC(=O)N(Cc3cccc(C(=O)O)c3)C2=O)cc1 (stereo not drawn),inactive: -24%
10,O=[N+]([O-])c1cc(S(=O)(=O)N2CCCC2)ccc1N/N=C/c1ccncc1,inactive: 29%
11,Cc1cccc(N2C(S)=C(C#N)C(=O)NC2c2ccco2)c1 (stereo not drawn),inactive: 11.3%
12,COc1ccc(NC(=O)C2(C)CCN2Cc2csc3ccccc23)cc1OC (stereo not drawn),inactive: 5.57%
13,COCCNc1nc(Oc2cccc3ccccc23)c2sccc2n1,inactive: 23.9%
14,O=C(O)c1c2c(nc3ccccc13)/C(=C/c1ccccc1[N+](=O)[O-])CCC2,inactive: -4.91%
15,C=CCN(CC(O)c1cccc([N+](=O)[O-])c1)C(C)CCc1ccccc1 (stereo not drawn),inactive: -32.5%
16,Cn1ncc(Cl)c(Oc2ccc(Cl)cc2)c1=O,inactive: 28.3%
17,CCOc1ccc2oc(C(=O)Nc3ccc4c(c3)OCO4)c(C)c2c1,inactive: -28.8%
18,CCCNC(=O)C1(C)CCCN(C(=O)c2cc(F)ccc2C)C1 (stereo not drawn),inactive: 2.39%
19,CSc1ccccc1OCc1cc(C(=O)NCCn2nc(C)cc2C)no1,inactive: -4.32%
20,Cc1cccc(C)c1NS(=O)(=O)c1ccc2c(c1)NC(=O)CO2,inactive: -8.96%
21,COc1ccc(-n2nnnc2SCC(=O)NC(=O)Nc2ccc3c(c2)OCCO3)cc1,inactive: 20.2%
22,COc1ccc(CC2(CO)CCN(C/C=C/c3ccccc3OC)CC2)cc1,inactive: -2.63%
23,CSCC[C@H](NC(=O)Nc1ccc(OC(F)(F)F)cc1)C(=O)O,inactive: 5.02%
24,NC(=O)c1c(N)sc2c1CCC2,inactive: -16.1%
25,Cc1cccc(OCC(=O)N(Cc2cccc(Cl)c2)Cc2ccco2)c1C,inactive: 13%
26,CC(C)(C)C1CCC(C(=O)Nc2cccnc2)CC1 (stereo not drawn),inactive: 10.7%
27,O=C(C1CCN(C2CCN(C/C=C/c3ccccc3)CC2)CC1)N1CCOCC1,inactive: 6.33%

row,Structure (SMILES),growth rescue (activation)
1,CCN(CC)CCNS(=O)(=O)c1ccc(/C=C/C(=O)O)cc1,inactive: 10.3%
2,CC(=O)c1cccc(N(CC(=O)Nc2ccc(F)cc2)S(C)(=O)=O)c1,inactive: 8.81%
3,CSc1cccc(NC(=O)CCCOc2ccc(Cl)cc2C)c1,inactive: 20%
4,O=C(O)CSc1nnc(-c2ccc(Cl)cc2Cl)n1-c1ccc(Br)cc1,inactive: 3.24%
5,CCc1cccc(CC)c1NC(=O)c1ccccc1,inactive: 10.3%
6,NS(=O)(=O)c1ccc(CCNC(=O)c2coc3ccccc3c2=O)cc1,inactive: 4.49%
7,S=c1[nH]nc(COc2cccc3ccccc23)n1Cc1ccccc1,inactive: 0.82%
8,CC(=O)Nc1cc(-c2cccc(C(=O)N(C)C)c2)cn2c(-c3ccccc3)cnc12,inactive: -1.63%
9,CNS(=O)(=O)c1ccc2nc(NC(=O)c3ccc(N4C(=O)CCC4=O)cc3)sc2c1,inactive: -13.9%
10,O=C(CNCCc1ccccc1)Nc1ccc(C(=O)N2CCCCC2)cc1,inactive: -3.72%
11,COc1ccc(CC(=O)OCC(=O)Nc2ccc(Cl)cc2C)cc1,inactive: 28.3%
12,CCCCc1nc2ccccc2n1CC(=O)NN,inactive: 1.48%
13,COc1ccccc1CN1C[C@@H]2C[C@@H](c3cccc(C)n3)N3CCC[C@@]23C1=O,inactive: -0.0853%
14,CC(C)NC(=O)NC(=O)COC(=O)c1ccc(OC(F)(F)F)cc1,inactive: 17.5%
15,CCc1ccc(N2CC(C)Cn3c2nc2c3c(=O)[nH]c(=O)n2C)cc1 (stereo not drawn),inactive: 0.451%
16,O=C(CC1S/C(=N/N=C/C=C/c2ccccc2)NC1=O)Nc1ccc(C(=O)O)cc1 (stereo not drawn),inactive: 20.7%
17,CCc1ccc(N(C(=O)c2csnn2)C(C(=O)NC(C)(C)CC)c2cccnc2)cc1 (stereo not drawn),inactive: 7.01%
18,CC(NC(=O)c1ccc2c(c1)OCCO2)c1ccc(S(N)(=O)=O)cc1 (stereo not drawn),inactive: -15.3%
19,O=C(CSc1ccccc1)Nc1ccc(C(=O)Nc2cccc(O)c2)cc1,inactive: 5.57%
20,Cc1ccc(OCC(=O)Nc2cc(S(=O)(=O)N3CCCCC3)ccc2C)c([N+](=O)[O-])n1,inactive: 11.6%
21,Cc1cc(C(C2C(=O)CC(C)(C)CC2=O)C2C(=O)CC(C)(C)CC2=O)cc(C)c1OC(F)F,inactive: 4%
22,O=C(NCc1ccccc1)c1ccc(S(=O)(=O)NCc2ccco2)cc1,inactive: 13.8%
23,Cc1ccccc1CN1CCc2cc([N+](=O)[O-])ccc21,inactive: 15.6%
24,CC(Sc1ccc(S(=O)(=O)N2CCOCC2)cc1[N+](=O)[O-])C(=O)O (stereo not drawn),inactive: 10.1%
25,COc1ccc(C(=O)NC(=S)NNC(=O)c2ccco2)cc1,inactive: -2.79%
26,CC(C)C(=O)N1CCC1(C)C(=O)Nc1ccc(-n2cncn2)cc1 (stereo not drawn),inactive: 11.9%
